# Assay results: PubChem BioAssay AID463173 (ICCB-Longwood Screening Facility, Harvard Medical School, 2010)
# Among all 52,000 compounds or so, about 4,300 (8.3%) were called active. Rule as the data show it: active = survival mostly below about 52% (no sharp cut-off); inactive = mostly above about 56%. The list shows a part of the results.
# System: DeltatarO mutant
# Assay: growth inhibition of S. aureus wild type versus tarO mutant, primary screen, teichoic acid synthesis inhibitors, RN4220, OD600 (AID 463173)
# Settings: OD600, 18 h, hits give low values, screened at 18.75 µg/mL (by protocol)
row,Compound,survival
1,Cc1ccc(NC(=O)CSc2nnc(NC(=O)NC3CCCCC3)s2)cc1,inactive: 80%
2,COc1ccccc1C(=O)Nc1ccc(S(=O)(=O)Nc2nc(C)cc(C)n2)cc1,inactive: 61%
3,O=C(Nc1ccc2c(c1)CCC2)C1CCN(c2ccc(S(=O)(=O)N3CCCC3)cc2)CC1,inactive: 103%
4,Cc1oc2ncnc(N3CCCCC3)c2c1C(=O)N1CCN(c2ccc(Cl)cc2)CC1,inactive: 60%
5,CCOC(=O)c1ccccc1NC(=O)CSc1cn(CC(=O)N2CCCCCC2)c2ccccc12,inactive: 77%
6,COc1ccc(S(=O)(=O)N(CC(=O)NCCc2ccccc2)c2ccc(Cl)cc2)cc1,inactive: 83%
7,CC(=O)SCCC(=O)N1CCn2c3c(c4cc(C)ccc42)CCCC31 (stereo unspecified),inactive: 92%
8,CCN(Cc1ccccc1)C(=O)c1cc2sccc2n1Cc1ccccc1,inactive: 67%
9,CCOc1ccc(C(=O)c2oc3ccccc3c2NC(=O)c2cc(=O)c3ccc(C)cc3o2)cc1,inactive: 134%
10,Fc1ccc(NCc2ccccc2-c2nnc(-c3ccccc3Cl)o2)cc1Cl,inactive: 77%
11,CCc1ccc(-c2cc(C)no2)cc1S(=O)(=O)NCc1ccc(OC)cc1,inactive: 94%
12,COc1ccccc1CC(=O)Nc1c[nH]c(=O)[nH]c1=O,inactive: 76%
13,N#C/C(=C/c1ccccc1Cl)c1nc(-c2cc3ccccc3oc2=O)cs1,inactive: 81%
14,O=C(NCc1ccccn1)c1cc2n(n1)C(C(F)(F)F)CC(c1ccco1)N2 (stereo unspecified),inactive: 83%
15,COc1cc(C)ccc1OCCSc1nc2ccc(NC(=O)c3ccccc3F)cc2s1,inactive: 99%
16,O=C(Cn1c(=O)n(CC2CCCO2)c(=O)c2ccccc21)Nc1ccc(F)cc1F (stereo unspecified),inactive: 92%
17,COC(=O)c1cc(NC(=O)Cn2nc(-c3ccccc3)c3c(c2=O)CCCC3)cc(C(=O)OC)c1,active: 24%
18,O=C1SCCc2c1n(Cc1ccccc1)c1ccccc21,inactive: 86%
19,O=C(/C=C/c1ccco1)N/C(=C\c1ccc2c(c1)OCO2)C(=O)N1CCCCCC1,inactive: 110%

row,Compound,survival
1,CCCCNC(=O)Cn1nc(N2CCN(c3ccccc3OC)CC2)ccc1=O,inactive: 89%
2,COc1ccc(Cl)cc1NC(=O)COc1cccc2c(=O)n(C)ccc12,inactive: 96%
3,COC(=O)c1ccc(NC(=O)CN(C)S(=O)(=O)c2ccc3c(c2)CCCC(=O)N3)cc1,inactive: 79%
4,CC1=NN(c2ccc(N)cc2)C(=O)C1,inactive: 107%
5,COc1cccc(C(=O)N2CCc3cc(OC)c(OC)cc3C2COc2ccc3c(C)cc(=O)oc3c2)c1 (stereo unspecified),inactive: 57%
6,CCn1cc(S(=O)(=O)c2cc(C)cc(C)c2)c(=O)c2cc(F)c(N3CCN(c4ccccc4)CC3)cc21,inactive: 79%
7,CCCCn1c(CNc2ccc(C)cc2)nnc1SCC(=O)OC,inactive: 78%
8,Cc1cccc2cc(-c3nc(-c4cccs4)no3)c(=O)oc12,inactive: 91%
9,Cc1sc2ncn(CC(=O)N3CCN(c4cccc(Cl)c4)CC3)c(=O)c2c1S(=O)(=O)N1CCC(C)CC1,inactive: 149%
10,CCOc1ccc(C(c2c(O)cc(C)n(CCOC)c2=O)N2CCN(c3ccc(F)cc3)CC2)cc1 (stereo unspecified),inactive: 78%
11,CCOC(=O)c1cc2sccc2n1CC(=O)NC(C)C,inactive: 72%
12,CCOc1ccc(-n2c(=O)c3c(C)c(C)sc3n(Cc3ccc(C(C)(C)C)cc3)c2=O)cc1,active: 52%
13,CC(=O)N1CCc2c(sc3c2c(=O)n(-c2cc(Cl)ccc2C)c(=O)n3C)C1,inactive: 117%
14,CCN1C(=O)Cc2cc(S(=O)(=O)N3CCOCC3)ccc21,inactive: 100%
15,CCN(CC)C(=O)Cn1c(=O)n(CCCCCC(=O)NCc2ccc(C)cc2)c(=O)c2sccc21,inactive: 83%
16,CCN(CC)C(=O)c1sc2c(c1C)c(=O)n(Cc1ccccc1)c(=O)n2Cc1c(C)cc(C)cc1C,inactive: 70%
17,O=C(NCC(c1ccco1)S(=O)(=O)c1cccs1)c1c(F)cccc1F (stereo unspecified),inactive: 102%
18,Cc1ccc2[nH]c(C)c(CCNC(=O)c3cc4cc(Br)ccc4oc3=O)c2c1,active: 37%
19,Cc1cccc(NC(=O)Cn2c(=O)n(CC3CCC(C(=O)NCCc4ccccc4)CC3)c(=O)c3ccccc32)c1C (stereo unspecified),inactive: 80%

row,Compound,survival
1,CCOC(=O)c1ccc(NC(=O)c2c(NCc3ccc(OC)c(OC)c3OC)sc3c2CCC(C)C3)cc1 (stereo unspecified),inactive: 123%
2,O=C(NCC(c1cccnc1)N1CCc2ccccc21)c1cccc(F)c1 (stereo unspecified),active: 44%
3,Cc1nn(-c2ccc(N3CCCC3)nn2)c(C)c1CCC(=O)N1CCN(c2ccc(F)cc2)CC1,inactive: 120%
4,CCCCN(C(=O)CCn1c(=O)oc2ccccc21)c1ccccc1,inactive: 79%
5,COc1ccc(OCC(=O)N2CCN(C(=O)c3cccc(OC)c3OC)CC2)cc1,inactive: 74%
6,CC(C)Oc1ccc2ccc(=O)oc2c1,inactive: 99%
7,CCOc1ccc(-c2cc(CCCC(=O)NCCc3ccc(SC)cc3)no2)cc1,inactive: 48%
8,COCCn1c(C)cc(O)c(C(c2ccccc2Cl)N2CCN(c3ccccc3)CC2)c1=O (stereo unspecified),inactive: 87%
9,CC1CCCCN1C(=O)c1ccccc1NS(=O)(=O)c1ccc(F)cc1 (stereo unspecified),inactive: 96%
10,COc1cc(NC(=O)c2noc3c2CC(C(C)(C)C)CC3)cc(OC)c1OC (stereo unspecified),active: 40%
11,Cn1c(C(=O)NCc2ccccc2F)cc2cc(S(=O)(=O)N3CCCCC3)ccc21,inactive: 96%
12,COc1ccc(NC(=O)CN(C)S(=O)(=O)c2ccc3nc(C)sc3c2)cc1Cl,inactive: 82%
13,COC(=O)c1sc2cccc(F)c2c1S(=O)(=O)NCc1ccccc1Cl,inactive: 75%
14,COc1ccc(CCNCc2c(C(=O)O)c(C)n(Cc3cccc(C)c3)c2C)cc1OC,inactive: 96%
15,Cc1cccc(Nc2nnc(-c3ccc(C)c(S(=O)(=O)N4CCOCC4)c3)c3ccccc23)c1,inactive: 69%
16,CCCOc1ccc(C(=O)Nc2ccc(NC(=O)c3ccc(Br)cc3)cc2)cc1,inactive: 88%
17,Cn1c(Oc2cccc(Cl)c2)nc2c1c(=O)n(Cc1ccccc1Cl)c(=O)n2C,inactive: 66%
18,Cc1ccc(NS(=O)(=O)c2ccc3[nH]c4c(c3c2)CCCCCC4)cc1C,active: -1%
